Experimental data as given in ChEMBL document CHEMBL5308541, “MAIP: An Open-Source Tool to Enrich High-Throughput Screening Output and Identify Novel, Druglike Molecules with Antimalarial Activity” (ACS Med Chem Lett, 2023).
Among all 150,000 compounds or so, about 540 (0.36%) showed an effect of 50% or more. The list shows a part of the results.

These compounds were tested on Plasmodium falciparum (assay: Primary screen in NF54 nanoGlo assay, in single point, at 2uM, 72h; a lower Z score goes with more inhibition). Conditions: timepoint 72 hour.
Type: functional, Erythrocyte
`Cn1c(-c2ccccc2)c([C@H](CN)c2ccccc2)c2ccccc21` was tested, and the “% Inhibition” value was -6% and the Z score was 0.9. In the case of `Cn1cncc1CN(CCO)C(=O)CCc1cccc(Cl)c1`, the “% Inhibition” value is reported as -4% and the Z score is reported as 0.77. In the case of `O=C(c1cccc2[nH]ccc12)N1CCC(C2OCCC2Nc2ncccn2)CC1` (stereo unspecified), the “% Inhibition” value is reported as -9% and the Z score is reported as 1.78. `COc1cncc(N2CCN(CCN3CCC(C)CC3)CC2)n1` was tested, and the “% Inhibition” value was -9% and the Z score was 1.54. In the case of `c1ccc(COc2ccc(Nc3[nH]cnc4ncnc3-4)cc2)cc1`, the “% Inhibition” value is reported as -1% and the Z score is reported as 0.2. In the case of `COCCCn1ccc(Nc2nccc(Oc3ccc(F)cc3)n2)n1`, the “% Inhibition” value is reported as -14% and the Z score is reported as 2.36. With `CC1(C)O[C@H]2C[C@H](NC(=O)c3cc[nH]c(=O)c3)C[C@H]2O1` the “% Inhibition” value was -4% and the Z score was 0.78. In the case of `N#Cc1cnc(NC[C@H]2CCCN(C3CCCC3)C2)nc1N`, the “% Inhibition” value is reported as 1% and the Z score is reported as -0.2. In the case of `CC1=NC(Nc2nc(C)c3ccccc3n2)=NC(C)(C)C1`, the “% Inhibition” value is reported as -10% and the Z score is reported as 1.72. `C[C@@H](c1ccc(S(C)(=O)=O)cc1)N1CCC(Nc2ncnc3[nH]ccc23)CC1` was tested, and the “% Inhibition” value was -10% and the Z score was 2.09. `CN1CCCN(C(=O)CCC2CN(C3Cc4ccccc4C3)CCC2N2CCN(c3ccccc3F)CC2)CC1` (stereo unspecified) was tested, and the “% Inhibition” value was 10% and the Z score was -1.74. With `Cc1cc(N2CCC[C@H](N3CCN(C(=O)c4ccccn4)CC3)C2=O)n(C)n1` the “% Inhibition” value was -4% and the Z score was 0.77. With `COc1cc(OC)nc(N2CCC(N3CCC[C@H](C(=O)N4CCCC4)C3)CC2)n1` the “% Inhibition” value was -6% and the Z score was 1.34. With `CC[C@H](O)c1cc2n(n1)CCN(C(=O)CCS(=O)(=O)c1ccccc1)C2` the “% Inhibition” value was -4% and the Z score was 0.62. For `Oc1cccc2c1CC[C@@H]2NCc1ccc(OC(F)F)c(F)c1`, the “% Inhibition” value was 4% and the Z score was -0.65. In the case of `CC(C)[C@H]1NC(=O)CCNc2cc(nc(NCc3cc(C4CC4)[nH]n3)n2)CCNC(=O)[C@H](C)NC1=O`, the “% Inhibition” value is reported as -4% and the Z score is reported as 0.93. In the case of `Cc1cc(Nc2nc3ccccc3s2)n(-c2ccccc2)n1`, the “% Inhibition” value is reported as -2% and the Z score is reported as 0.29. In the case of `CC[C@H]1CCCCN1C(=O)CS(=O)(=O)c1cn(Cc2cccc(F)c2)c2ccccc12`, the “% Inhibition” value is reported as -12% and the Z score is reported as 1.83. For `CC(=O)N1CCC(CNC2CCC(C)(N3CCCC3)CC2)CC1` (stereo unspecified), the “% Inhibition” value was -10% and the Z score was 1.74. In the case of `c1nc(N2CCC[C@H](Nc3ccc4c(c3)OCCO4)C2)c2cc[nH]c2n1`, the “% Inhibition” value is reported as -9% and the Z score is reported as 1.85. With `O=C(c1ccnc2ccccc12)N1CCN(C2CCOCC2)CC1` the “% Inhibition” value was -6% and the Z score was 0.98. `CCC1(NC(=O)c2cc(C)c3ccccc3n2)CCOCC1` was tested, and the “% Inhibition” value was 21% and the Z score was -4.08. With `O=S(=O)(c1ccccc1NC1CCN(Cc2ccccc2)CC1)C(F)(F)F` the “% Inhibition” value was -6% and the Z score was 1.29. `Cn1cc(C(=O)NC2CCC(N3CCNCC3)CC2)c([C@H]2CCCNC2)n1` (stereo partly specified) was tested, and the “% Inhibition” value was -11% and the Z score was 1.63. For `COC[C@H]1CC[C@H]1NC(=O)c1c(C)ccc(Br)c1OC`, the “% Inhibition” value was -5% and the Z score was 0.97. `O=C(c1cc(-c2ccccn2)no1)N1CC2C3CCC(C3)C2C1` (stereo unspecified) was tested, and the “% Inhibition” value was -4% and the Z score was 0.8. `OC[C@H](CNc1cc(-c2ccccc2)nc2ccnn12)Cc1ccsc1` was tested, and the “% Inhibition” value was -1% and the Z score was 0.11. For `O=C(Cn1cc(-c2ccc(F)cc2)cn1)N1C2CCC1CC(Oc1ccncc1)C2` (stereo unspecified), the “% Inhibition” value was 2% and the Z score was -0.32. `O[C@H]1CCCN(CCCn2cnc(-c3ccccc3)c2-c2cc(F)cc(F)c2)C1` was tested, and the “% Inhibition” value was -1% and the Z score was 0.11. In the case of `COc1ccc2nc(Nc3sc4c(c3-c3nc5ccccc5s3)CC[C@H](C)C4)sc2c1`, the “% Inhibition” value is reported as -14% and the Z score is reported as 2.14. `Cc1nc(N2CC3COCC(C3)C2)cc(C(F)(F)F)n1` was tested, and the “% Inhibition” value was 1% and the Z score was -0.11. In the case of `N[C@@H](CNc1nc2ccccc2[nH]1)C1CC1`, the “% Inhibition” value is reported as -4% and the Z score is reported as 0.7. `CN(C)C[C@H]1CCN(c2ncnc3cc[nH]c23)C1` was tested, and the “% Inhibition” value was 13% and the Z score was -2.62. `O=C(O)c1ccc2c(c1)OCCN(Cc1cnn3c1CCC3)C2` was tested, and the “% Inhibition” value was 4% and the Z score was -0.58. `Cc1ccnc(NCCNc2nc(C)nc3c2CCNCC3)c1` was tested, and the “% Inhibition” value was -2% and the Z score was 0.33. With `CN(C)C(=O)CN1CCC(Nc2cnc3ccccc3n2)C(O)C1` (stereo unspecified) the “% Inhibition” value was -9% and the Z score was 1.55. With `c1ccc(N2CC[C@H](N3CCN(c4nsc5ccccc45)CC3)C2)cc1` the “% Inhibition” value was -1% and the Z score was 0.15. With `CN1C(=O)C2CCC1CN(C(=O)CCN1Cc3ccccc3C1=O)C2` (stereo unspecified) the “% Inhibition” value was -9% and the Z score was 1.73. With `O=C(Nc1ccccc1N1CCC(O)CC1)c1ccnc(OCC(F)F)c1` the “% Inhibition” value was -7% and the Z score was 1.37. For `COCc1noc(CCNC(=O)[C@@H]2CC3(CCNCC3)CN2)n1`, the “% Inhibition” value was -13% and the Z score was 2.26. In the case of `c1ccc2c(c1)CN(c1ncnc3[nH]ccc13)C[C@@H]1CCCN21`, the “% Inhibition” value is reported as -19% and the Z score is reported as 2.95. With `O=C(NCc1ccnc2ccccc12)N1CC(O)C(N2CCOCC2)C1` (stereo unspecified) the “% Inhibition” value was -3% and the Z score was 0.63. With `c1cnc(N[C@H]2CCN(CCOC3CCOCC3)C2)nc1` the “% Inhibition” value was 9% and the Z score was -1.93. In the case of `CC1NCCCC1Nc1c(C#N)cnc2ccc(Cl)cc12` (stereo unspecified), the “% Inhibition” value is reported as -19% and the Z score is reported as 2.89. For `Cc1ccc(N2CCC(N3CCC4(CCC(=O)N4C)CC3)CC2)cc1`, the “% Inhibition” value was -2% and the Z score was 0.37. For `N#Cc1c[nH]c(C(=O)NCc2nncn2C2CCCCC2)c1`, the “% Inhibition” value was -2% and the Z score was 0.49. `NC(=O)c1cc2c(OC[C@@H](O)COC3CN(C(c4ccccc4)c4ccccc4)C3)cccc2[nH]1` was tested, and the “% Inhibition” value was -9% and the Z score was 1.4. With `O=S1(=O)C[C@@H](c2ccccc2)CN1Cc1nnc2n1CCCC2` the “% Inhibition” value was -8% and the Z score was 1.67. For `CN1CCC(Oc2ccc(NC(=O)c3cc(-c4cccn4C)[nH]n3)cc2)CC1`, the “% Inhibition” value was -8% and the Z score was 1.44. With `Oc1ccc(OC(F)(F)F)cc1-c1ccc2nccn2n1` the “% Inhibition” value was 86% and the Z score was -17.13. With `O=C(CCNC(=O)c1ccccc1F)Nc1ccc(Oc2nnn[nH]2)cc1` the “% Inhibition” value was -12% and the Z score was 1.76. `COc1ccc([C@@H](O)CNCc2cnc(-c3ccccc3)s2)cc1` was tested, and the “% Inhibition” value was -8% and the Z score was 1.53. `COc1ccc(CN2CCc3c([nH]c4ccccc34)[C@H]2c2ccccc2F)cc1O` was tested, and the “% Inhibition” value was -6% and the Z score was 1.06. `CN(CC1(N2CCCCC2)CCCCC1)c1cc(N2CCC(O)CC2)ncn1` was tested, and the “% Inhibition” value was 0% and the Z score was 0.07. `CN1CC[C@H](N2CCC(NC(=O)c3ccc4ccncc4c3)CC2)C1=O` was tested, and the “% Inhibition” value was -5% and the Z score was 0.91. In the case of `CC(NS(C)(=O)=O)C(=O)N1CC2CCCC2C1` (stereo unspecified), the “% Inhibition” value is reported as -10% and the Z score is reported as 2.1. In the case of `COCC[C@H]1CCCCN1C(=O)c1cccc(-c2cnc3cccnn23)c1`, the “% Inhibition” value is reported as -5% and the Z score is reported as 1.05. `Cc1cnn(CCNCC(=O)NCC(C)(C)N2CCOCC2)c1` was tested, and the “% Inhibition” value was 1% and the Z score was -0.11. In the case of `CC(C)(C)c1cc(NCc2cc(O)c3ccccc3n2)ncn1`, the “% Inhibition” value is reported as 7% and the Z score is reported as -1.4. For `C[C@@H](CN(C)CCO)NC1CC(C)(C)NC(C)(C)C1`, the “% Inhibition” value was -9% and the Z score was 1.54. `CNc1ccc(Nc2nn3cc(-c4cccnc4)nc3s2)cn1` was tested, and the “% Inhibition” value was 6% and the Z score was -1.03. With `Fc1ccc2ncnc(N[C@H]3CCCN(CCN4CCOCC4)C3)c2c1` the “% Inhibition” value was -6% and the Z score was 1.32. `COC1CN(c2ncc(Br)cn2)CC1O` (stereo unspecified) was tested, and the “% Inhibition” value was -7% and the Z score was 1.34. `CCOc1cc(NC2CCN(c3ccnc4c3cnn4C)CC2)ncn1` was tested, and the “% Inhibition” value was -10% and the Z score was 2.26. For `OCCNc1nc2ccccc2n1Cc1cc(-c2ccc(Cl)cc2)no1`, the “% Inhibition” value was -10% and the Z score was 1.7. `O=S(=O)(c1ccc2[nH]cnc2c1)N1CCC2(CCNCC2)C1` was tested, and the “% Inhibition” value was -9% and the Z score was 1.32. For `CCN1CC(NS(=O)(=O)c2ccc3[nH]cnc3c2)C(OC)C1` (stereo unspecified), the “% Inhibition” value was -11% and the Z score was 2.12. In the case of `Cc1cnc(N)nc1N1CCN([C@H]2CCNC2)CC1`, the “% Inhibition” value is reported as 2% and the Z score is reported as -0.4. `Cn1nnc(-c2cccc(NC(=O)c3cc4c(Cl)cccc4[nH]3)c2)n1` was tested, and the “% Inhibition” value was 3% and the Z score was -0.43. `Cn1cc(CNc2ccc(OCC(F)(F)F)nc2)c(-c2ccc3c(c2)OCCCO3)n1` was tested, and the “% Inhibition” value was -3% and the Z score was 0.53. `CN(C(=O)c1cc(F)cc2cccnc12)c1cccc2ncccc12` was tested, and the “% Inhibition” value was -1% and the Z score was 0.14. `N#Cc1cccnc1NCc1cccc(C(=O)Nc2ccc(Oc3cccc(F)c3)nc2)c1` was tested, and the “% Inhibition” value was 5% and the Z score was -0.97. For `N#Cc1ccc(N2CCC(Nc3ncnc4nc(N)ccc34)CC2)cc1`, the “% Inhibition” value was 8% and the Z score was -1.45. For `O[C@H]1CCN(Cc2cccc(NCc3cn4ccnc4s3)c2)C1`, the “% Inhibition” value was 52% and the Z score was -7.83. `CN(Cc1n[nH]c2c1CCCC2)C1CCN(c2ccc(C(=O)NCCN3CCOCC3)cc2)CC1` was tested, and the “% Inhibition” value was -12% and the Z score was 2.13. In the case of `O=C(NC1CCN(C2CCCCC2)CC1)c1ccc(-c2cncnc2)cc1F`, the “% Inhibition” value is reported as 1% and the Z score is reported as -0.09. With `O=C1CC[C@H](N2CCN(c3nccc(Oc4ccccc4)n3)CC2)CCN1` the “% Inhibition” value was -1% and the Z score was 0.22. For `CCn1cc(-c2cccc(C(=O)NC3CCN(C[C@H]4CCCO4)CC3)c2)cn1`, the “% Inhibition” value was 6% and the Z score was -1.04. `CN1CCN(CCCNC(=O)c2ccccc2Nc2cccc(C(F)(F)F)c2)CC1` was tested, and the “% Inhibition” value was 8% and the Z score was -1.36. In the case of `COc1ccc2cc3n(c2c1)CC(C)(C(=O)NCCCN1CC(C)CC(C)C1)N(Cc1ccccc1C)C3=O` (stereo unspecified), the “% Inhibition” value is reported as 0% and the Z score is reported as -0.05. With `COC[C@H](NC(=O)Nc1ccncc1F)c1ccccc1` the “% Inhibition” value was -8% and the Z score was 1.39. For `CN1CCN(CC2CCN(Cc3cnc(-c4ccccc4)nc3)CC2)CC1`, the “% Inhibition” value was 10% and the Z score was -1.49. For `Cc1ccccc1-c1c(-c2ccccc2)ncn1CCCN(CCO)CCO`, the “% Inhibition” value was -7% and the Z score was 1.16.
